This is an account of results in PubChem BioAssay AID1645882 (National Center for Advancing Translational Sciences (NCATS), 2021).

Hit rate of the full screen: of about 16,000 compounds, about 120 (0.75%) were called active. Not shown: some 4% with an inconclusive outcome. Calls follow the shape of the dose curve; as a rule, active = well fitted inhibition curve with a large enough effect; inconclusive = small, poorly fitted or top-dose-only effect; inactive = no such curve, though single readings can be large or run the other way. The list shows a part of the results.

UniProt O95398, sequence (O95398 whole entry, looked up): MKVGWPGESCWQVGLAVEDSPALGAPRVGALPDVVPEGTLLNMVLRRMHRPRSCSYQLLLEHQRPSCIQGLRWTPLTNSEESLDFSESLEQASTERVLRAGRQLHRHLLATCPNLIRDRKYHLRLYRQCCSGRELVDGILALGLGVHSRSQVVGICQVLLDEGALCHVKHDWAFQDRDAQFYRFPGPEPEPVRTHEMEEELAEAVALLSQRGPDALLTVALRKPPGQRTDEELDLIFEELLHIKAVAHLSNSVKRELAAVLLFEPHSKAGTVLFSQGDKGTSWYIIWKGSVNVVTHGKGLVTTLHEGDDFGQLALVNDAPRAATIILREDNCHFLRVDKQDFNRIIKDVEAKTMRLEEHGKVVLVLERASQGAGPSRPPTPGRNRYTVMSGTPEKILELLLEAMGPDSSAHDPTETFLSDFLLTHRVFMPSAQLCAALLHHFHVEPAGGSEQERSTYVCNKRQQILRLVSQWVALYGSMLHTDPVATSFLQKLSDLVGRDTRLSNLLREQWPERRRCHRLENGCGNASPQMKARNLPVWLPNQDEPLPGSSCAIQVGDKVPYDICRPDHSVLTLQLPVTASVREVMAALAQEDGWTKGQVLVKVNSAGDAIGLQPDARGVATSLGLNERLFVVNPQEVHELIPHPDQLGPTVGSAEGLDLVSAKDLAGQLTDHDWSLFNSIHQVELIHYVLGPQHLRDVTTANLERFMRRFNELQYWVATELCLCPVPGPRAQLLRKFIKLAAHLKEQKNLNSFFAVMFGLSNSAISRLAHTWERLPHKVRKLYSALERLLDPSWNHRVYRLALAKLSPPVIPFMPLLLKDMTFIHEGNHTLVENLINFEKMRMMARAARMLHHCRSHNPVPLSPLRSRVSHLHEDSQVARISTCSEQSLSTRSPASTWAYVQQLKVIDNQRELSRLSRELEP

The test addresses Rap guanine nucleotide exchange factor 3 (Homo sapiens) (UniProt O95398). The experiment in a line: Validation qHTS for antagonist of cAMP-regulated guanine nucleotide exchange factor 3 (EPAC1).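 Also: plate controls were DMSO for no effect and ATA control for full effect; nearly all actives have a fitted effect of over 75% in size.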 The conditions noted are these: EPAC1 Rap1B-BODIPY-GDP exchange, fluorescence; series mostly up to 150 µM; activity change, negative = inhibition: at the top concentration. Summed up:
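Nucleotide exchange followed as fluorescence loss when BODIPY-GDP leaves Rap1B (480 nm excitation, 540 nm emission), read at 5 min intervals over 30 min. Reaction: 100 nM EPAC1, 250 nM RAP1B-BODIPY-GDP, 50 uM GDP; ATA and DMSO define normalization.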
On the technique in general: qHTS replaces the single test concentration by a dilution series.
Consider `Cc1oc(-c2ccccc2NC(=O)c2ccccc2)nc1CNC(=O)c1cccc(-n2cccn2)c1`, for which the “activity change, negative = inhibition” value is inactive: -0.137%. For `c1cncc(-c2nc(N3CCNCC3)c3ccccc3n2)c1`, the “activity change, negative = inhibition” value was inactive: 1.78%. With `O=C(Nc1cccc(F)c1)N1CCC2(CC1)CCN(S(=O)(=O)c1ccccc1)CC2`, the “activity change, negative = inhibition” value is inactive: 1.81%. Take `COC(=O)C[C@H]1c2cc(F)ccc2S(=O)(=O)N1c1ccccc1`: the “activity change, negative = inhibition” value was inactive: 14.4%.

As for `O=c1[nH]c2cc(C(F)(F)F)ccc2n1-c1cc(C(F)(F)F)ccc1O`, the activity change, negative = inhibition result was “inactive”. For `O=C(c1ccncc1)N1CCC2(CCN(Cc3nccs3)CC2)CC1`, the “activity change, negative = inhibition” value was inactive: -0.658%. Regarding `COc1ccc(-n2c(=O)c(-c3ccccc3)nc3cnc(N4CCOCC4)nc32)cc1`, the “activity change, negative = inhibition” value is inactive: 24.2%. Take `O=c1cc(-c2ccccc2)oc2cc(O)c(O)c(O)c12`: the “activity change, negative = inhibition” value was inactive: -28.8%.

With `COc1ccc(-c2oc3cc(OC)ccc3c(=O)c2O)cc1`, the “activity change, negative = inhibition” value is inactive: 2.27%. Take `CC(NC(=O)c1ccco1)c1nnc2n1CCN(Cc1ccc(Cl)cc1)CC2` (centres undefined): the “activity change, negative = inhibition” value is inactive: 3.32%. The same measure for `COc1ccc2c(c1)-c1nc(-n3ncc(C(=O)N(C)CC4CCCN(C)C4)c3C)ncc1CC2` (centres undefined): inactive: 5.46%; for `CC(C)CCCC(C)N` (centres undefined): inactive: 17.2%; for `CNC(C)C1CC[C@H](N)[C@@H](OC2C(N)C[C@H](N)[C@@H](OC3OC[C@](C)(O)C(NC)[C@H]3O)C2O)O1` (some centres undefined): inactive: 34.4%. The same measure for `CC1CN(CC(=O)NCCC2COc3ccccc3O2)Cc2cc(Cl)ccc2O1` (centres undefined): inactive: -14.9%. `CC(C)CCCC(C)C1CCC2C3C(=O)C=C4CC(O)CC[C@@]4(C)C3CC[C@@]12C` (some centres undefined): the “activity change, negative = inhibition” value is inactive: 6.98%. For `CS(=O)(=O)N1CCC[C@@]2(CCN(c3ccccn3)C2)C1`, the “activity change, negative = inhibition” value is inactive: 13.1%. Regarding `N[C@@H](CCCC(=O)O)C(=O)O`, the “activity change, negative = inhibition” value is inactive: -0.537% [at 75.8 µM]. Regarding `CN(C)CCn1nnnc1SCC1=C(C(=O)O)N2C(=O)[C@@H](NC(=O)Cc3csc(N)n3)[C@H]2SC1`, the “activity change, negative = inhibition” value was inactive: 31.1% [at 75.8 µM]. Consider `Cc1c(CCO)sc[n+]1CCc1ccccc1`, for which the “activity change, negative = inhibition” value was inactive: 19.3%. To `CN(C)c1ncc2nc(-c3ccc(F)cc3)c(=O)n(C3CC3)c2n1` belongs inactive: 18.2%; to `CC(C)CCCC(C)C1CCC2C3CC[C@H]4CC(=O)CC[C@@]4(C)C3CC[C@@]12C` (some centres undefined), inactive: 5.52%. To `C1=CC2C3C=CC(C3)C2C1` (centres undefined) belongs inactive: 38.6% [at 320 µM]. For the molecule `Fc1ccc(/C=C/c2ccc3ccccc3n2)cc1`, the “activity change, negative = inhibition” value was inactive: -21.8%. As for `CCCCCCCCN1[C@@H](CC(=O)O)c2ccc(/C=C/C(=O)O)cc2S1(=O)=O`, the “activity change, negative = inhibition” value was inactive: -24.6%. In the case of `COc1ccccc1C(=O)N(Cc1cc2cc3c(cc2nc1N(C)C)OCO3)CC1CCCO1` (centres undefined), the “activity change, negative = inhibition” value was inactive: -6.55%. `CCOC(=O)C[C@H]1c2cc(F)ccc2S(=O)(=O)N1c1ccccc1`: the “activity change, negative = inhibition” value is inactive: 8.08%. As for `O=c1cc(-c2ccccc2)[nH]c2nc(Cl)ccc12`, the “activity change, negative = inhibition” value is inactive: -7.75% [at 75.8 µM].

As to `O=c1[nH]c(=O)c2nc3ccccc3nc2[nH]1`, the activity change, negative = inhibition result was “inactive”.

As to `N#Cc1cccc(NC(=O)N2CC[C@@]3(CCCN(C(=O)c4cc(C(F)(F)F)cc(C(F)(F)F)c4)C3)C2)c1`, the “activity change, negative = inhibition” value was inactive: -15%.
